PubChem BioAssay AID504466 (National Center for Advancing Translational Sciences (NCATS), 2011)
Out of some 330,000 compounds screened, about 4,200 (1.3%) were called active. The shares of active, inactive and inconclusive entries below differ from those in the screen. The call rests on the fitted dose curve; in most records, active means well fitted activation curve with a large enough effect; inconclusive means small, poorly fitted or top-dose-only effect; inactive means no such curve, though single readings can be large or run the other way. Potencies beside an inconclusive call are fits to weak or partial responses and may not hold up.

experiment: qHTS screen for small molecules that induce genotoxicity in human embryonic kidney (HEK293T) cells expressing luciferase-tagged ELG1; details: HEK293T ELG1-luciferase reporter, luminescence, 16 h; series mostly up to 46 µM; further: nearly all actives have a fitted effect of over 60% in size
How it was run: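 Screening used a luciferase reporter fused to human ELG1 in HEK293T cells. Luminescence was read on a CCD plate imager after 16 hr exposure and 30 min ONE-Glo incubation.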
Potency means the concentration at half of the fitted maximal effect; tags describe the fitted curve by direction and shape.

Compound | Potency
CN(C)CCNc1ncnc2c1sc1nc(N3CCCC3)c3c(c12)CC(C)(C)OC3 | inactive
Cc1cccc(NC(=O)C2C3C=CC(C4CC34)C2C(=O)O)c1 (configuration not stated) | inactive
O=C1c2ccccc2-c2nc3ccccc3cc21 | inconclusive: 9.2 µM [activator, partial curve]
Cc1ccc(C(=O)NNC(=O)c2nn(-c3ccc(F)cc3)ccc2=O)cc1 | inactive
Cc1cc(=O)n2[nH]c(-c3cccc(Cl)c3)cc2n1 | inconclusive: 20.6 µM [activator, partial curve, poor fit]
CC(Cc1cccs1)NC(=O)c1cccs1 (configuration not stated) | inconclusive: 14.6 µM [activator, partial curve, poor fit]
O=C(Oc1ccc(-c2cnc3ccccc3n2)cc1)c1cc([N+](=O)[O-])ccc1Cl | inconclusive: 6.51 µM [activator, single point]
C(=N\Nc1nc(-c2ccccc2)cs1)/c1ccco1 | inconclusive: 5.17 µM [activator, full curve, poor fit]
O=c1[nH]c(O)c(/C=C2\C=Nc3ccccc32)[nH]1 | inconclusive: 20.6 µM [activator, partial curve, poor fit]
Cc1cc(C)nc(SCc2nc3ncccn3c2Br)n1 | inactive
COc1ccc(OCCOc2ccc(C)nc2[N+](=O)[O-])cc1 | inconclusive: 20.6 µM [activator, single point]
CSc1cccc(NC(=O)NCc2cccc(CNC(=O)Nc3cccc(SC)c3)c2)c1 | inactive
c1ccc(-c2noc(CCC3CCCC3)n2)cc1 | inconclusive: 18.3 µM [activator, single point]
CN(C(=O)Nc1ccc(Cl)cc1Cl)C1CCCC1 | inconclusive: 14.6 µM [activator, partial curve]
CC(=O)c1ccc(NC(=O)c2ccc(C)c(Br)c2)cc1 | inconclusive: 2.31 µM [activator, full curve]
COc1ccc(C(=O)NC2=NCCS2)c(OC)c1 | inconclusive: 2.31 µM [activator, partial curve]
O=C(c1cccs1)N1CCN(C23CC4CC(CC(C4)C2)C3)CC1 | inactive
O=C(COc1ncnc2ccccc12)c1ccc2c(c1)OCCO2 | inconclusive: 2.59 µM [activator, full curve, poor fit]
O=C(Nc1cccc(O)c1)c1cc(-c2ccco2)on1 | inconclusive: 29.1 µM [activator, single point]
O=C(Nc1ccc(O)cc1)c1ccc(NC(=O)C2CCCO2)cc1 (configuration not stated) | inconclusive: 14.6 µM [activator, partial curve]
O=C(Nc1cc2nn(-c3ccccc3)nc2cc1Cl)c1ccco1 | active: 9.2 µM
COC(=O)c1ccc(/C=C2\Oc3ccccc3NC2=O)cc1 | inconclusive: 18.3 µM [activator, partial curve, poor fit]
C/C(=N\NC(=O)C1(C)CC1(Br)Br)c1cccc(NC(=O)c2ccc(C)o2)c1 (configuration not stated) | inactive
Nc1nc(-c2ccc(Cl)cc2)nnc1-c1ccc(Br)cc1 | inconclusive: 3.66 µM [activator, full curve]

Compound | Potency
Cc1cc(=S)n(-c2ccccc2)n1C | active: 16.4 µM
CCC1=Nc2cc(C(=O)NCCCOC)ccc2Sc2ccccc21 | inconclusive: 3.66 µM [activator, full curve]
O=C(CN(C(=O)CCC(=O)Nc1nccs1)c1ccccc1F)NCc1ccc(F)cc1 | inactive
CCOc1ccc(NC(=O)Nc2cccs2)cc1 | active: 4.61 µM
Cc1ccsc1/C=N/NC(=O)c1c[nH]c2ccccc12 | inconclusive: 11.6 µM [activator, partial curve, poor fit]
C=C(C(=O)c1ccccc1)C(CC(=O)c1ccccc1)c1ccccc1 (configuration not stated) | inactive
Oc1ccc(Nc2ncnc3c2oc2ccccc23)cc1 | inconclusive: 18.3 µM [activator, partial curve]
CC(=O)c1cccc(OCc2cc(C(=O)NCCC3=CCCCC3)no2)c1 | inconclusive: 4.61 µM [activator, full curve]
COc1ccc(-n2ncc3c(N(C)C4CCCCC4)ncnc32)cc1 | inconclusive: 0.0651 µM [activator, full curve, poor fit]
FC(F)(F)c1ccc(C2NCCc3sccc32)cc1 (configuration not stated) | inconclusive: 20.6 µM [activator, partial curve, poor fit]
c1ccc2c(c1)nc(N1CCOCC1)c1nnnn12 | inconclusive: 13 µM [activator, partial curve]
CCCNC(=O)CCn1cc(-c2ccc(OC)cc2)nc1-c1ccncc1 | inactive
COc1ccc(C(=O)Nc2nc(N)n(-c3ccccc3)n2)cc1OC | inactive
Cn1cccc1C(=O)OCc1ccc(F)cc1 | inconclusive: 23.1 µM [activator, partial curve, poor fit]
BrC(=C\c1ccccc1)/C=N/N1CCN(Cc2ccccc2)CC1 | inconclusive: 29.1 µM [activator, single point]
CN(/N=C/c1ccc2c(c1)OCO2)c1ccccc1 | inconclusive: 7.31 µM [activator, partial curve, poor fit]
O=C(O)CCN1CCN(S(=O)(=O)c2ccc3ccccc3c2)CC1 | inactive
CN(C)Cc1ccccc1Sc1cccc2ccccc12 | inactive
CC1=CC(=O)C=C(C)C1=NOS(=O)(=O)c1ccccc1 | inconclusive: 18.4 µM [activator, partial curve, poor fit]
Cc1c(C(=O)NC2CCCCC2)oc2ccccc12 | inconclusive: 20.6 µM [activator, single point]
O=c1[nH]c(SCc2ccc(Cl)cc2)nc2[nH]ncc12 | inconclusive: 23.1 µM [activator, single point]
O=C(Nc1ccccn1)c1cc2ccccc2o1 | inconclusive: 0.731 µM [activator, partial curve, poor fit]
NCCNC(=O)Cc1cccc(NC(=O)Cc2ccc(Nc3ncnc4c3ncn4[C@@H]3O[C@H](CO)[C@@H](O)[C@H]3O)cc2)c1 | inconclusive: 11.6 µM [activator, partial curve, poor fit]
O=C(NCCc1csc(-c2cccnc2)n1)c1ccc(Cl)cc1 | inactive

Compound | Potency
Cc1ccc2nc(SC(C)C(=O)N3CCCC3)[nH]c2c1 (configuration not stated) | inconclusive: 14.6 µM [activator, partial curve, poor fit]
Cc1cccc(NC(=O)CSCC(=O)Nc2cc(Cl)ccc2N2CCOCC2)c1 | inactive
Cc1ccccc1C(=O)N/N=C/c1ccsc1C | inconclusive: 10.3 µM [activator, partial curve]
O=C(/C=C/c1ccccc1Cl)c1cccnc1 | inactive
O=C(NC(=S)Nc1ccc2[nH]c(=O)[nH]c2c1)c1ccccc1[N+](=O)[O-] | inconclusive: 20.6 µM [activator, single point]
CC(=O)N1c2ccc(C)cc2C(c2ccccc2)CC1C (configuration not stated) | inconclusive: 10.3 µM [activator, single point]
Cc1cccc2c1cnn2C(=O)Nc1cc(F)ccc1F | inconclusive: 8.2 µM [activator, partial curve]
O=C(Nc1ccc(O)cc1)c1ccc(NC(=O)c2cccs2)cc1 | inconclusive: 2.91 µM [activator, full curve, poor fit]
Cc1cc(C(=O)Nc2c(C)nn(Cc3ccc(F)cc3)c2C)on1 | inconclusive: 0.259 µM [activator, full curve, poor fit]
Cn1cc(Br)c(C(=O)Nc2ncc(Br)s2)n1 | inconclusive: 2.59 µM [activator, full curve]
COc1cc(/C=C\C(=O)OCn2nnc3ccccc3c2=O)cc(OC)c1OC | inconclusive: 20.6 µM [activator, single point]
O=C(O)c1ccc2oc(SCC(=O)N3CCCCC3)nc2c1 | inconclusive: 6.51 µM [activator, partial curve, poor fit]
Cc1ccc(-n2nc(C)c3c(C)cc(=O)[nH]c32)cc1 | inconclusive: 35.5 µM [activator, single point]
CC1CCc2c(sc(NC(=O)C3=COCCO3)c2C(N)=O)C1 (configuration not stated) | inconclusive: 1.83 µM [activator, full curve, poor fit]
COc1cccc(CSc2nc3ccccc3[nH]2)c1 | inconclusive: 7.31 µM [activator, partial curve]
COc1ccc(OC(=O)NCCc2ccccc2)cc1 | inconclusive: 18.3 µM [activator, single point]
COc1ccc(-n2nnnc2SCC(=O)c2cccc(OC)c2)cc1 | inconclusive: 23.1 µM [activator, single point]
Cc1nn(C)c(C)c1NC(=O)COc1ccc(Cl)cc1Br | inactive
Cc1ccccc1-c1cnn(-c2cccc([N+](=O)[O-])c2)c1N | inactive
C=CCNc1nc(C(=O)OCC(=O)c2ccc(F)cc2)cs1 | inconclusive: 29.1 µM [activator, partial curve, poor fit]
Cn1cccc1/C=C1\SC(=Nc2ccccc2)NC1=O | active: 23.1 µM
O=c1[nH]c2ccccc2nc1CCc1ccccc1 | inconclusive: 7.08 µM [activator, partial curve, poor fit]
COc1cccc(/C=C/C(=O)c2ccc(NC3=NCCCS3)cc2)c1 | inconclusive: 23.1 µM [activator, single point]
Cc1ccsc1/C=C1\CCC(C2CCCC2)C1=O (configuration not stated) | inconclusive: 13 µM [activator, partial curve, poor fit]
